# Laboratory results as given in the supplement of paper PMC11417369.
# Some of the results follow.
# Tested on: PfAP2-HC AP2 domain (GST-tagged)
# Test: gcPBM binding intensity (ln(normalized median fluorescence intensity)); higher = stronger DNA binding
# Summary of the method: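 DNA-binding domains from P. falciparum, fused to GST and produced in E. coli, were put on an Agilent 4 × 180k double-stranded probe array for 1 h in 1× PBS holding 1% milk, 0.2 mg/ml BSA, 0.5% salmon testes DNA and 0.03% Triton X-100. Probes were primer-extended, 36 bp long and drawn from intergenic genomic regions, with negative controls included. After Alexa488 anti-GST antibody detection and a 488 nm scan, binding intensity was set as the highest Masliner-normalised natural-log median intensity across replicate spots of either probe orientation.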
row,Sequence,gcPBM binding intensity (ln)
1,ATTTATCTATAATATACACACATATAACAGACATAT [CACACA_site6469],9.87
2,AAAACGTATCACAAAAGTACAGATAGTTATAATATA [XGTACX_site185],9.77
3,CGAAACCATATGTACACACACATATATAAATATGTA [CACACA_site7082],9.95
4,ATATATCAACTCATATTATTTTCTTTTATTATTTAT [CACACA_negctrl_site276],9.75
5,GTATACTTAACATTCACACATATATATATATATAAA [CACACA_site4596],9.63
6,AATTATTTACCTTCTTTGAAAGAACAAATGATACAA [CACACA_negctrl_site1315],9.48
7,ATATATATATATATATGTACTTATAATTCTTCAATT [XGTACX_site5627],9.47
8,ATTTATAATCTGTATAGTACACATATATACATGGTT [XGTACX_site2714],9.78
9,CTAAAACAATAAATCACACATACATAGGATAATATA [CACACA_site4247],9.81
10,TCTTAAATATACAGTTGTACTAAACAAAAAAAAAAA [XGTACX_site2639],9.65
11,TATAAAAAATGATAAAGTACTTTATACACACAAATA [XGTACX_site8486],9.83
12,AAAATATACACACATATGTATATAATATTATATGTA [GTGCAC_negctrl_site496],9.96
13,ATGTAGATATATATCTGTACGTATATGTAAATATTA [XGTACX_site1516],9.84
14,ACACATTATAACAAGGTGCAATTTTTATACACATGT [GTGCAC_site9866],10.2
15,TATATAAAACCTTATTGTACTATTAGACTATGCTTA [XGTACX_site6026],9.51
16,CAAATATCTATTTAGTGTACTAATATATTCAATAAT [XGTACX_site2345],9.45
17,ACAAAGACAATTTTGTTATATATAAAAAAAAAAAAT [CACACA_negctrl_site253],9.58
18,ATTAATTTTCCATTCACACATATATATATATATATA [CACACA_site6065],9.75
19,ATAGCATATATTTTTTGTACATATGTTATATATATA [XGTACX_site2184],9.66
20,TACAAATATATATGCACACACATATCTGTATATGTG [CACACA_site5663],10.1
21,GAAAAAAAAAAAAATACACACAAATTGGTATATAAC [CACACA_site6315],9.96
22,GCTATAATAAAATTTAAACACACGTAATATAATATA [CACACA_site2592],9.65

row,Sequence,gcPBM binding intensity (ln)
1,AAAATTTCATAAAGACGTACTATAAAAATAAAATTA [XGTACX_site4182],9.62
2,AAAAATTCTTGGCGCACACACTTTAAAAGTTAAAAA [CACACA_site6430],9.88
3,GTATATTTCTTTAAATGTACACATTTTTTTAAAGAG [XGTACX_site1225],9.42
4,AATTGTATAAATGGAATAATGACTATGATTATACAT [GTGCAC_negctrl_site188],9.84
5,TATAAAAAATATCCTTTTTTTATACATCAATATATA [TGCATGCA_negctrl_site291],9.37
6,CACTAATAGTGGATTACACACATATAGATGTATATA [CACACA_site7234],9.66
7,AAAATAAGCGTGAAACGTACATATTACATTATTATA [XGTACX_site8914],9.74
8,TATTAAAAGAAAATAACACACACAAAAAAAAAAAAA [CACACA_site8661],10.1
9,ATAATATATATATAGTGTACATTTGAATATATTTGA [XGTACX_site583],9.7
10,AAAAAAAACAGACACACACACAAATATATAAAAATA [CACACA_site1172],10.6
11,TTTTTGAAATAATGAAACAGCAAAAAAACAAAAATA [CACACA_negctrl_site221],9.6
12,AAGGTCATTTTATATTGTACATGAAATTGTTATGTA [XGTACX_site187],9.58
13,TCAATTTGGAACGGTATGCACTAATTTTATATTTTT,9.77
14,ATATATTTTGTATGTAGTACAATTTTATAATCATAT [XGTACX_site8373],9.61
15,AATAATGAATACACATGTACAAAAATTTTTCTTACT [XGTACX_site1962],9.75
16,TATTACAAATATGGCACACATATATATATATATATT [CACACA_site3268],9.79
17,ATATACAGATAAATGTGTACTTAAATCTATTATATT [XGTACX_site2632],9.65
18,TTTTAAAATATCAACACACTCATTATTTTCTATATT [CACACA_site4740],9.78
19,AAAATAAAAACAAAATCACACATTCCAGTTTTTTTT [CACACA_site5356],9.66
20,TCATTCTATCTGTTCACACATACACAAAAAAAAAAA [CACACA_site5141],9.47
21,TATATACATGTGAGAGTGCATATAGACATAAAAAAT,9.95
22,AAAATTTTCTTTTTATGTACACATAATTTTACCGGA [XGTACX_site5276],9.5
